This note sets out measurements from article PMC10668032.

The list shows a part of the results. At the low end of the ranking the order means little.

This experiment deals with SIX1-Q177R homeodomain (UniProt Q15475). Put plainly: universal protein binding microarray. The conditions noted are these: Universal all-10-mer PBM (8x60K, AMADID 030236), 300 nM GST-tagged protein, Alexa Fluor 488 anti-GST; buffer, salt, pH and temperature not stated; high values mean tight binding; most listed sequences are background and not binding sites; double strand, one strand shown.
Take TCCACGAA: the binding signal was -0.229 E-score. Take TAAAGTTA: the binding signal was -0.108 E-score. For CCAATTCA the value was 0.0423 E-score. Consider CGCGCCAA, for which the binding signal is -0.0295 E-score. For TAAAATTA the value was -0.224 E-score; for GCATTAGC, -0.233 E-score. In the case of CACGGAGG, the binding signal was 0.222 E-score.

As for AATGTAAG, the binding signal is -0.117 E-score. Turning to ATCATAAC, the binding signal is 0.146 E-score. CGCTAAAG: the binding signal was -0.319 E-score. Then AGTAGTGA, with 0.0251 E-score; and ATCGTGAA, with -0.225 E-score. Consider GAGTTTCA, for which the binding signal is -0.0337 E-score. For CGCATCCA the value was -0.0795 E-score; for GGTCTCAA, -0.0287 E-score. For CAATAACA the value was 0.133 E-score; for AAACGCGT, -0.112 E-score. As to GGCCCTCA, the binding signal is -0.237 E-score.

Take AAGGTGGC: the binding signal was -0.135 E-score. As to ACTATTAA, the binding signal was found to be 0.0721 E-score. For CTGGATCC the value was 0.121 E-score.

For CTTTAATA, the binding signal was -0.0622 E-score.

For the sequence GGCGAACC, the binding signal is -0.12 E-score. Take GAAGGATC: the binding signal turned out to be 0.117 E-score.

Take GCTCTCAA: the binding signal is -0.154 E-score.

Regarding GGAGTCGA, the binding signal is 0.227 E-score. For CACGGACC the value was 0.117 E-score; for ACATGGAG, 0.0903 E-score.

For AGGTGAGG, the binding signal was -0.16 E-score. For GGCATTAA the value was 0.019 E-score. For GCAAGTGC the value was -0.141 E-score. For ATCCTGGC the value was -0.0482 E-score; for CATGACCC, 0.218 E-score; for ACGGGTCA, 0.113 E-score. On to TAGTTTCA, for which the binding signal was -0.112 E-score. With ACTCTGGA, the binding signal was determined as 0.0683 E-score. For the sequence AATTGGTG, the binding signal turned out to be 0.221 E-score. Then CGCGCTGC, with -0.0738 E-score; and CATCAGCA, with -0.229 E-score. For CATTGAAA the value was -0.103 E-score. For AAATAAAT the value was -0.197 E-score; for AACGAATA, -0.284 E-score. With CCCCAACA, the binding signal turned out to be 0.278 E-score. As to TCCCTTAA, the binding signal stood at 0.0808 E-score. For ACACGGCG the value was 0.359 E-score. As for CACTACAA, the binding signal is 0.236 E-score.

TACCGGTA: the binding signal was 0.137 E-score. Then CGGACAAC, with -0.0272 E-score; and GAGGTTGA, with -0.0492 E-score; and AGCCACTG, with -0.15 E-score. Then CCGATAGC, with -0.00916 E-score; and CGTCTACC, with -0.109 E-score; and CACTCGAA, with 0.127 E-score. With ATCGAGTA, the binding signal was -0.0453 E-score.

For CACCGGAC, the binding signal was 0.315 E-score. For AAAAGGGG the value was 0.0371 E-score. For ACCCAGGA, the binding signal amounted to 0.0898 E-score. With ATAGTCGA, the binding signal is -0.189 E-score. Then CTAACGTA, with -0.065 E-score. Then TCAGCACA, with -0.0748 E-score; and GGAGTCCA, with 0.0849 E-score. Then CTTTTTAA, with -0.268 E-score. For CAACCCAC, the binding signal was 0.171 E-score. For the sequence AAGAATGC, the binding signal is -0.134 E-score. Take GATCACCC: the binding signal came out at 0.132 E-score. AAATGCGT: the binding signal is -0.118 E-score.

In the case of ACTTGACT, the binding signal is -0.0543 E-score.

With GTGCCCAC, the binding signal is -0.0937 E-score.

TAGTACAA: the binding signal turned out to be 0.0706 E-score. As for GACTTACC, the binding signal is -0.105 E-score. For ACGTTTAC the value was -0.0176 E-score; for CACACCCG, 0.423 E-score; for CAGTTAAG, 0.23 E-score. Then AAGATTTC, with -0.243 E-score; and AGAATGCG, with -0.285 E-score; and CGTCATCA, with -0.128 E-score. As for AGGTCTAC, the binding signal was -0.0453 E-score. As for AGCAATCC, the binding signal is -0.183 E-score. Then GCAATTGC, with -0.226 E-score; and ACGTCCAG, with -0.0569 E-score.

As for CCACTTCG, the binding signal turned out to be 0.0374 E-score.

Turning to AACGGGTA, the binding signal is 0.141 E-score.

In the case of CTGTGGCA, the binding signal is -0.04 E-score. For CGTACAAA the value was -0.118 E-score; for CTACGCTC, -0.0693 E-score; for ATTAGACG, 0.0467 E-score. Regarding ACCGTCGC, the binding signal came out at 0.0136 E-score. For AGCCGAGA the value was -0.155 E-score; for GTCTAGAC, -0.0532 E-score. For GATGCCAC, the binding signal was -0.196 E-score.

As to AACATAGT, the binding signal was -0.167 E-score. In the case of AGGGCAAG, the binding signal was found to be 0.00769 E-score. AATTAGGG: the binding signal was found to be 0.135 E-score.

In the case of GGGCTATA, the binding signal is 0.0973 E-score. Consider CAAGGAGA, for which the binding signal was -0.181 E-score. For ACAGGGAT the value was 0.111 E-score; for GGACGCGA, 0.0375 E-score; for ACTGGTTA, 0.0966 E-score.

AATCCCGG: the binding signal worked out at 0.0428 E-score. For the sequence CATTAAAG, the binding signal is -0.0811 E-score. As to GCCGGCGA, the binding signal is -0.0597 E-score.

Consider GGGTGGAC, for which the binding signal is 0.0505 E-score.

In the case of AATATCAG, the binding signal is -0.0103 E-score.

In the case of ACGATCTC, the binding signal is -0.247 E-score. ACACACTC: the binding signal was 0.314 E-score. On to GATACGGC, for which the binding signal is -0.0772 E-score. Then CTATGGCC, with -0.221 E-score; and CACACTCC, with 0.291 E-score. Then TACCGGGA, with -0.0253 E-score. For the sequence ACACTACT, the binding signal was found to be 0.393 E-score. Then CAATCCTG, with -0.12 E-score. Regarding AGCAGTAA, the binding signal is -0.0926 E-score. As for CAACATCG, the binding signal was -0.193 E-score. Then AAGGTTCT, with -0.0253 E-score.

With CACCAAAC, the binding signal is 0.283 E-score.

Take AAACCTGG: the binding signal worked out at 0.169 E-score. For GAAGGTAA the value was -0.0172 E-score.

Take TCAGTCCA: the binding signal was -0.0976 E-score. With TGTCCAAA, the binding signal stood at 0.0949 E-score. In the case of ATCTAACC, the binding signal was -0.218 E-score.

For CCTCCTTC, the binding signal was -0.061 E-score. Then GGTGGAGA, with -0.0619 E-score; and ACCAGGGT, with 0.19 E-score; and GGGTGAGA, with 0.0782 E-score. Consider CCGCCAGA, for which the binding signal is 0.061 E-score. For GGGTACAC the value was 0.443 E-score; for CCTATCGA, -0.0816 E-score; for AGCCTCAG, -0.18 E-score.

Consider GCAACCCA, for which the binding signal was -0.0189 E-score. As for ATGGATCG, the binding signal is -0.119 E-score. Then CACATCGG, with 0.0195 E-score; and CACGATGC, with 0.182 E-score; and GCGATGAC, with -0.0426 E-score. For the sequence GCGCGACA, the binding signal stood at 0.155 E-score.

As to AGGATTAA, the binding signal is -0.131 E-score. Turning to ATGTGGTC, the binding signal was -0.185 E-score.

AGGACATG: the binding signal is -0.15 E-score. For GAGCGGTA the value was -0.157 E-score.

For TAAGTCAA, the binding signal is -0.229 E-score. Turning to CTCCATTC, the binding signal amounted to 0.0123 E-score.

As to ACACTTAG, the binding signal was 0.355 E-score. Take CCCATCGG: the binding signal is -0.0481 E-score. For CACACGAC, the binding signal worked out at 0.237 E-score. For ACTTAGAA the value was -0.0549 E-score. As for CACCTATC, the binding signal was found to be 0.289 E-score.

On to AGTACGCA, for which the binding signal is -0.0619 E-score. In the case of TGGGATAA, the binding signal came out at 0.00666 E-score. Then CTTGTCAA, with 0.0395 E-score. On to ACTAGCGG, for which the binding signal is 0.0848 E-score. Regarding ACTCAGTC, the binding signal is -0.103 E-score. AAATGTAC: the binding signal was -0.00885 E-score.

Regarding CTCGTAGA, the binding signal is -0.152 E-score.

In the case of GACTTATA, the binding signal was -0.137 E-score.

Turning to AAGTAGGC, the binding signal was -0.116 E-score. Then ACATTCGT, with -0.125 E-score; and ACGGTACA, with 0.118 E-score. Turning to TCACGGAA, the binding signal was -0.078 E-score.

As to CCCGGGCG, the binding signal is 0.0228 E-score.

In the case of AGACTGTG, the binding signal is -0.261 E-score. Then AGGGACGC, with -0.0192 E-score; and ACGTGGTA, with 0.00206 E-score; and TAAATTTA, with -0.0495 E-score. For CCTCCAGA the value was 0.0469 E-score; for GACATGTA, -0.0765 E-score; for GAGGACTA, -0.0325 E-score. For CTAGGGAG the value was 0.00188 E-score. TATAAATA: the binding signal was -0.177 E-score. Turning to CCTGATCG, the binding signal was -0.136 E-score. For CTCTCGCA the value was -0.0458 E-score; for GGGGGTAC, 0.331 E-score; for ACAGCCAC, -0.173 E-score. With AATTCGTA, the binding signal is -0.0821 E-score.
